From DBAASP
In brackets after ≈: the same amount, converted by molar mass. Several values for one entry are separate records, joined by “and”; a condition that tells them apart may be missing. Equal entries are not always repeated. One block for each molecule: values may come before it.

What was measured:
Assay in all cases: ≥ marks a high value that may be exact or a test limit, other limits are often not marked
[1] = test system: Shigella dysenteriae
[2] = test system: Escherichia coli ATCC 25922
[3] = test system: Helicobacter pylori NCTC 11637
[4] = test system: Candida albicans ATCC 2002
[5] = test system: Klebsiella pneumoniae ATCC 13883
[6] = test system: Staphylococcus aureus ATCC 2592
[7] = test system: Staphylococcus aureus ATCC 29213
[8] = test system: Pseudomonas aeruginosa ATCC 27853
[9] = test system: Acinetobacter baumannii ATCC 19606
[10] = test system: Proteus mirabilis ATCC 25933
[11] = test system: Klebsiella pneumoniae ATCC 10031
[12] = test system: Staphylococcus aureus KCTC 3881
[13] = test system: Escherichia coli KCTC 2433
[14] = test system: Candida albicans ATCC 36232
[15] = test system: Pseudomonas aeruginosa ATCC 9027
[16] = test system: Staphylococcus epidermidis ATCC 12228
[17] = test system: Shigella dysenteriae ATCC 9752
[18] = test system: Bacillus subtilis ATCC 6633
[19] = test system: Micrococcus luteus ATCC 4698
[20] = test system: Pseudomonas aeruginosa M1251
[21] = test system: Pseudomonas aeruginosa M917
[22] = test system: Pseudomonas aeruginosa PAO1
[23] = test system: Pseudomonas aeruginosa R70
[24] = test system: Salmonella enterica serovar Typhimurium
[25] = test system: Pseudomonas aeruginosa M76
[26] = test system: Pseudomonas fluorescens
[27] = test system: Candida albicans
[28] = test system: Pseudomonas aeruginosa M1426
[29] = test system: Achromobacter xylosoxidans
[30] = test system: Staphylococcus aureus
[31] = test system: Pseudomonas aeruginosa
[32] = test system: Escherichia coli UB1005
[33] = test system: Staphylococcus aureus ATCC 6538
[34] = test system: Stenotrophomonas maltophilia
[35] = test system: Ralstonia pickettii
[36] = test system: Pseudomonas aeruginosa H744
[37] = test system: Pseudomonas aeruginosa K799
[38] = test system: Salmonella enterica subsp. enterica serovar Typhimurium ATCC 14028s
[39] = test system: Pseudomonas aeruginosa Z61
[40] = test system: Pseudomonas aeruginosa H374
[41] = test system: Pseudomonas aeruginosa H547
[42] = test system: Salmonella enterica subsp. enterica serovar Enteritidis ATCC 13076
[43] = test system: Streptococcus mutans ATCC 25175
[44] = test system: Yersinia ruckeri
[45] = test system: Staphylococcus aureus ATCC 15752
[46] = test system: Bacillus subtilis ATCC 62037
[47] = test system: Candida albicans ATCC 10231
[48] = test system: Escherichia coli K-12
[49] = test system: Lactococcus garvieae
[50] = test system: Edwardsiella ictaluri
[51] = test system: Escherichia coli ATCC 27325
[52] = test system: Saccharomyces cerevisiae ATCC 44774
[53] = test system: Cryptococcus neoformans ATCC 34881
[54] = test system: Aeromonas salmonicida
[55] = test system: Serratia sp. ATCC 21074
[56] = test system: Staphylococcus aureus USA 300
[57] = test system: Salmonella enterica subsp. enterica serovar Typhimurium ATCC 15277
[58] = test system: Pseudomonas putida ATCC 17426

SMILES: CC(C)C[C@H](NC(=O)[C@H](CC(C)C)NC(=O)[C@H](CCCCN)NC(=O)[C@H](CCCCN)NC(=O)[C@H](CC(C)C)NC(=O)[C@H](C)NC(=O)[C@H](CCCCN)NC(=O)[C@H](C)NC(=O)[C@H](CC(C)C)NC(=O)[C@H](CC(C)C)NC(=O)[C@H](CCCCN)NC(=O)[C@H](C)NC(=O)[C@@H](N)Cc1ccccc1)C(N)=O [FAKLLAKALKKLL]
MIC [20]: 5.49 µM (≈ 7.99 µg/mL)
MIC [21]: 22 µM (≈ 32 µg/mL)
MIC [22]: 5.49 µM (≈ 7.99 µg/mL)
MIC [23]: 2.75 µM (≈ 4 µg/mL)
MIC [24]: 2.75 µM (≈ 4 µg/mL)
MIC [25]: 11 µM (≈ 16 µg/mL)
MIC [26]: 11 µM (≈ 16 µg/mL)
MIC [15]: 3.43 µM (≈ 5 µg/mL)
MIC [27]: 11 µM (≈ 16 µg/mL)
MIC [28]: 5.49 µM (≈ 7.99 µg/mL)
MIC [29]: ≥ 43.9 µM
MIC [30]: 2.75 µM (≈ 4 µg/mL)
MIC [31]: 7.77 µM (≈ 11.3 µg/mL)
MIC [32]: 2.75 µM (≈ 4 µg/mL)
MIC [33]: 3.43 µM (≈ 5 µg/mL)
MIC [34]: 1.37 µM (≈ 2 µg/mL)
MIC [35]: 11 µM (≈ 16 µg/mL)

SMILES: CC(C)C[C@H](NC(=O)[C@H](C)NC(=O)[C@H](CC(N)=O)NC(=O)[C@@H]1CCCN1C(=O)CNC(=O)[C@H](CO)NC(=O)[C@H](CC(N)=O)NC(=O)[C@H](C)NC(=O)[C@H](Cc1ccccc1)NC(=O)[C@H](CCCCN)NC(=O)[C@H](CCCCN)NC(=O)[C@H](C)NC(=O)[C@H](CCCCN)NC(=O)[C@H](Cc1c[nH]c2ccccc12)NC(=O)[C@H](Cc1c[nH]c2ccccc12)NC(=O)[C@H](CCCCN)NC(=O)[C@@H](N)CCCCN)C(=O)N[C@@H](CCC(N)=O)C(=O)N[C@H](C(=O)N[C@@H](CC(C)C)C(=O)N[C@@H](C)C(=O)N[C@@H](CCC(N)=O)C(=O)O)[C@@H](C)O [KKWWKAKKFANSGPNALQTLAQ]
MIC [36]: 25.4 µM (≈ 64 µg/mL)
MIC [37]: 25.4 µM (≈ 64 µg/mL)
MIC [38]: 25.4 µM (≈ 64 µg/mL)
MIC [39]: 25.4 µM (≈ 64 µg/mL)
MIC [32]: 25.4 µM (≈ 64 µg/mL)
MIC [40]: 25.4 µM (≈ 64 µg/mL)
MIC [41]: 25.4 µM (≈ 64 µg/mL)

SMILES: CC(C)[C@H](NC(=O)[C@H](CCCCN)NC(=O)CNC(=O)CNC(=O)[C@H](CCC(N)=O)NC(=O)[C@H](CCCCN)NC(=O)CNC(=O)[C@H](CCCNC(=N)N)NC(=O)CNC(=O)[C@@H](N)CCCCN)C(=O)N[C@@H](CCCNC(=N)N)C(=O)N[C@@H](C)C(=O)N[C@@H](CCCCN)C(=O)N[C@@H](C)C(=O)N[C@@H](CCCCN)C(=O)N[C@H](C(=O)N[C@@H](CCCNC(=N)N)C(=O)N[C@@H](CO)C(=O)N[C@@H](CO)C(=O)O)[C@@H](C)O [KGRGKQGGKVRAKAKTRSS]
MIC [42]: 2 µM (≈ 4 µg/mL)
MIC [43]: 1 µM (≈ 2 µg/mL)
MIC [44]: 7.5 µM (≈ 15 µg/mL)
MIC [45]: 2 µM (≈ 4 µg/mL)
MIC [46]: 1 µM (≈ 2 µg/mL)
MIC [47]: 1 µM (≈ 2 µg/mL)
MIC [48]: ≥ 84 µM
MIC [49]: 5 µM (≈ 10 µg/mL)
MIC [50]: 5 µM (≈ 10 µg/mL)
MIC [51]: 0.5 µM (≈ 1 µg/mL)
MIC [52]: 1 µM (≈ 2 µg/mL)
MIC [53]: 1 µM (≈ 2 µg/mL)
MIC [54]: 5 µM (≈ 10 µg/mL)
MIC [55]: 2 µM (≈ 4 µg/mL)
MIC [56]: ≥ 84 µM
MIC [57]: 1 µM (≈ 2 µg/mL)
MIC [58]: 0.5 µM (≈ 1 µg/mL)

More lines, now with the values ahead:

MIC [1]: 12.1 µM (≈ 30 µg/mL)
MIC [2]: 12.1 µM and 32 µM
MIC [3]: 8.05 µM (≈ 20 µg/mL)
MIC [4]: 10.1 µM (≈ 25 µg/mL)
MIC [5]: 16 µM (≈ 39.8 µg/mL)
MIC [6]: 2.01 µM (≈ 5 µg/mL)
MIC [7]: 8 µM (≈ 19.9 µg/mL)
MIC [8]: > 64 µM
MIC [9]: 64 µM (≈ 159 µg/mL)
SMILES: CC(C)C[C@H](NC(=O)CN)C(=O)N[C@@H](CC(C)C)C(=O)N[C@@H](CCCN=C(N)N)C(=O)N[C@@H](C)C(=O)N[C@@H](CO)C(=O)N[C@@H](CO)C(=O)N[C@H](C(=O)N[C@@H](Cc1c[nH]c2ccccc12)C(=O)NCC(=O)N[C@@H](CCCN=C(N)N)C(=O)N[C@@H](CCCCN)C(=O)N[C@@H](Cc1ccc(O)cc1)C(=O)N[C@@H](Cc1ccc(O)cc1)C(=O)N[C@H](C(=O)N[C@@H](CC(=O)O)C(=O)N[C@@H](CC(C)C)C(=O)N[C@@H](C)C(=O)NCC(=O)N[C@@H](CS)C(=O)N[C@@H](C)C(=O)N[C@@H](CCCCN)C(=O)N[C@@H](C)C(=O)O)C(C)C)C(C)C [GLLRASSVWGRKYYVDLAGCAKA]

MIC [10]: ≥ 60.4 µM
MIC [11]: 9.06 µM (≈ 15 µg/mL)
MIC [12]: 1.89 µM (≈ 3.13 µg/mL)
MIC [13]: 9.06 µM (≈ 15 µg/mL)
MIC [14]: 15.1 µM (≈ 25 µg/mL)
MIC [15]: > 60.4 µM
MIC [16]: 3.77 µM (≈ 6.24 µg/mL)
MIC [17]: 18.1 µM (≈ 30 µg/mL)
MIC [18]: 3.77 µM (≈ 6.24 µg/mL)
MIC [19]: 0.942 µM (≈ 1.56 µg/mL)
SMILES: CC[C@H](C)[C@@H]1NC(=O)[C@H](CCCCN)NC(=O)[C@H](CC(C)C)NC(=O)[C@H](C)NC(=O)[C@H](CCCCN)NC(=O)[C@@H](NC(=O)[C@@H](NC(=O)[C@@H](NC(=O)[C@H](CC(C)C)NC(=O)CNC(=O)[C@H](CC(C)C)NC(=O)[C@@H]2CCCN2C(=O)[C@H](Cc2c[nH]c3ccccc23)NC(=O)[C@@H](N)C(C)C)C(C)C)[C@@H](C)CC)CSSC[C@@H](C(=O)O)NC1=O [VWPLGLVICKALKIC]
